Reference: the supplement of paper PMC4967469
Lines with a small IC50 respond at low doses; fits outside the tested doses are given as limits. AUC, from the same fit, is the share of area under the viability curve across the 256-fold dose range; it is 1 without any effect and falls as sensitivity rises. For some assays here: An inferred top dose was derived from the fitted curves, not read from the paper. For some assays here: An entry number marks a drug with two screens in the source, which often give different values.

What was measured:
Experiment in all cases: Viability of human cancer cell lines after 72 h of drug (GDSC screen)
AZD6482 = compound: Cc1cc([C@@H](C)Nc2ccccc2C(=O)O)c2nc(N3CCOCC3)cc(=O)n2c1 [AZD6482]
Description: (§1)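 Human cancer cell lines in 384-well plates, medium with 10% serum, drug for 72 h over a 256-fold dose range (nine 2-fold or five 4-fold steps up to the top dose). Adherent lines were fixed and stained with the nucleic acid dye Syto60, suspension lines read with resazurin; signal relative to control wells, capped at 0 and 100%. One two-parameter sigmoid per drug and line, fitted in a mixed model over all curves with the slope shared within a line.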

MLN4924 = compound: NS(=O)(=O)OC[C@@H]1C[C@@H](n2ccc3c(N[C@H]4CCc5ccccc54)ncnc32)C[C@@H]1O [MLN4924]; settings: top dose 1 µM; top dose inferred
Description: as §1

NVP-BEZ235 = compound: Cn1c(=O)n(-c2ccc(C(C)(C)C#N)cc2)c2c3cc(-c4cnc5ccccc5c4)ccc3ncc21 [NVP-BEZ235]
Description: as §1

[1] = top dose 5 µM, screen: GDSC drug entry 1066, top dose inferred
[2] = top dose 5.12 µM, screen: GDSC drug entry 156

## CAMA-1 (breast, adherent)
AZD6482; [1]
  AUC: 0.909
  IC50: > 5000 nM
AZD6482; [2]
  AUC: 0.624
  IC50: 770 nM
MLN4924
  AUC: 0.878
  IC50: > 1000 nM

## HCC70 (breast, adherent)
AZD6482; [1]
  AUC: 0.836
  IC50: 3240 nM
AZD6482; [2]
  AUC: 0.703
  IC50: 1180 nM
MLN4924
  AUC: 0.721
  IC50: 262 nM

## HCC1806 (breast, adherent)
AZD6482; [1]
  AUC: 0.989
  IC50: > 5000 nM
AZD6482; [2]
  AUC: 0.955
  IC50: > 5120 nM
MLN4924
  AUC: 0.379
  IC50: 29.9 nM

## HL-60 (acute myeloid leukaemia, suspension)
AZD6482; [1]
  AUC: 0.728
  IC50: 1280 nM
AZD6482; [2]
  AUC: 0.896
  IC50: > 5120 nM
MLN4924
  AUC: 0.864
  IC50: 730 nM

## HT-1080 (fibrosarcoma, adherent)
AZD6482; [1]
  AUC: 0.938
  IC50: > 5000 nM
AZD6482; [2]
  AUC: 0.988
  IC50: > 5120 nM
MLN4924
  AUC: 0.401
  IC50: 34.5 nM

## HeLa (cervix, adherent)
AZD6482; [1]
  AUC: 0.979
  IC50: > 5000 nM
AZD6482; [2]
  AUC: 0.968
  IC50: > 5120 nM
MLN4924
  AUC: 0.799
  IC50: 454 nM

## JEKO-1 (B-cell lymphoma, suspension)
AZD6482; [1]
  AUC: 0.53
  IC50: 375 nM
MLN4924
  AUC: 0.968
  IC50: > 1000 nM

## KG-1 (acute myeloid leukaemia, suspension)
AZD6482; [1]
  AUC: 0.989
  IC50: > 5000 nM
AZD6482; [2]
  AUC: 0.958
  IC50: > 5120 nM
MLN4924
  AUC: 0.935
  IC50: > 1000 nM

## LN-229 (glioma, adherent)
AZD6482; [1]
  AUC: 0.943
  IC50: > 5000 nM
AZD6482; [2]
  AUC: 0.914
  IC50: > 5120 nM
MLN4924
  AUC: 0.752
  IC50: 329 nM

## MV-4-11 (leukaemia, suspension)
AZD6482; [1]
  AUC: 0.842
  IC50: 2640 nM
AZD6482; [2]
  AUC: 0.81
  IC50: 2130 nM
MLN4924
  AUC: 0.63
  IC50: 133 nM

## PC-3 (prostate, adherent)
AZD6482; [1]
  AUC: 0.883
  IC50: > 5000 nM
AZD6482; [2]
  AUC: 0.927
  IC50: > 5120 nM
MLN4924
  AUC: 0.761
  IC50: 429 nM

## SW962 (urogenital system, adherent, top dose 0.25 µM)
NVP-BEZ235
  AUC: 0.505
  IC50: 16.2 nM

## SW982 (soft tissue, adherent, top dose 0.25 µM)
NVP-BEZ235
  AUC: 0.682
  IC50: 51.2 nM

## SW1271 (small cell lung carcinoma, adherent, top dose 0.25 µM)
NVP-BEZ235
  AUC: 0.883
  IC50: > 250 nM

## SW1417 (large intestine, adherent, top dose 0.25 µM)
NVP-BEZ235
  AUC: 0.972
  IC50: > 250 nM

## SW1573 (lung adenocarcinoma, adherent, top dose 0.25 µM)
NVP-BEZ235
  AUC: 0.764
  IC50: 122 nM

## SW1710 (bladder, adherent, top dose 0.25 µM)
NVP-BEZ235
  AUC: 0.55
  IC50: 21.4 nM

## SW1783 (glioma, adherent, top dose 0.25 µM)
NVP-BEZ235
  AUC: 0.787
  IC50: 97.1 nM

## Saos-2 (osteosarcoma, adherent, top dose 0.25 µM)
NVP-BEZ235
  AUC: 0.806
  IC50: 198 nM

## SiHa (cervix, adherent, top dose 0.25 µM)
NVP-BEZ235
  AUC: 0.837
  IC50: 206 nM

## T47D (breast, adherent, top dose 0.25 µM)
NVP-BEZ235
  AUC: 0.695
  IC50: 74.9 nM

## T84 (large intestine, adherent, top dose 0.25 µM)
NVP-BEZ235
  AUC: 0.968
  IC50: > 250 nM

## T98G (glioma, adherent, top dose 0.25 µM)
NVP-BEZ235
  AUC: 0.609
  IC50: 30.4 nM

## T-T (oesophagus, adherent, top dose 0.25 µM)
NVP-BEZ235
  AUC: 0.786
  IC50: 108 nM

## TC-71 (Ewing sarcoma, adherent, top dose 0.25 µM)
NVP-BEZ235
  AUC: 0.745
  IC50: 67.8 nM

## TC-YIK (cervix, suspension, top dose 0.25 µM)
NVP-BEZ235
  AUC: 0.86
  IC50: 166 nM

## TCCSUP (bladder, adherent, top dose 0.25 µM)
NVP-BEZ235
  AUC: 0.687
  IC50: 56.7 nM

## TE-1 (oesophagus, adherent, top dose 0.25 µM)
NVP-BEZ235
  AUC: 0.85
  IC50: > 250 nM

## TE-4 (oesophagus, adherent, top dose 0.25 µM)
NVP-BEZ235
  AUC: 0.727
  IC50: 68.8 nM

## TE-5 (oesophagus, adherent, top dose 0.25 µM)
NVP-BEZ235
  AUC: 0.663
  IC50: 47.8 nM

## TE-6 (oesophagus, adherent, top dose 0.25 µM)
NVP-BEZ235
  AUC: 0.864
  IC50: > 250 nM

## TE-8 (oesophagus, adherent, top dose 0.25 µM)
NVP-BEZ235
  AUC: 0.72
  IC50: 69 nM

## TE-9 (oesophagus, adherent, top dose 0.25 µM)
NVP-BEZ235
  AUC: 0.912
  IC50: > 250 nM

## TE-10 (oesophagus, adherent, top dose 0.25 µM)
NVP-BEZ235
  AUC: 0.901
  IC50: > 250 nM

## TE-11 (oesophagus, adherent, top dose 0.25 µM)
NVP-BEZ235
  AUC: 0.759
  IC50: 80.6 nM

## TE-12 (oesophagus, suspension, top dose 0.25 µM)
NVP-BEZ235
  AUC: 0.733
  IC50: 84.6 nM

## TE-15 (oesophagus, suspension, top dose 0.25 µM)
NVP-BEZ235
  AUC: 0.785
  IC50: 122 nM

## TGBC1TKB (biliary tract, adherent, top dose 0.25 µM)
NVP-BEZ235
  AUC: 0.566
  IC50: 23.7 nM

## TGBC11TKB (stomach, adherent, top dose 0.25 µM)
NVP-BEZ235
  AUC: 0.897
  IC50: 246 nM

## TGW (neuroblastoma, adherent, top dose 0.25 µM)
NVP-BEZ235
  AUC: 0.731
  IC50: 63.3 nM

## THP-1 (acute myeloid leukaemia, suspension, top dose 0.25 µM)
NVP-BEZ235
  AUC: 0.874
  IC50: 201 nM

## TK10 (kidney, adherent, top dose 0.25 µM)
NVP-BEZ235
  AUC: 0.766
  IC50: 111 nM

## TK (B-cell lymphoma, suspension, top dose 0.25 µM)
NVP-BEZ235
  AUC: 0.796
  IC50: 105 nM

## TMK-1 (stomach, adherent, top dose 0.25 µM)
NVP-BEZ235
  AUC: 0.788
  IC50: 116 nM

## TOV-21G (ovary, adherent, top dose 0.25 µM)
NVP-BEZ235
  AUC: 0.296
  IC50: 3.93 nM

## TOV-112D (ovary, adherent, top dose 0.25 µM)
NVP-BEZ235
  AUC: 0.665
  IC50: 45.1 nM

## TT2609-C02 (thyroid, adherent, top dose 0.25 µM)
NVP-BEZ235
  AUC: 0.561
  IC50: 23.2 nM

## TT (thyroid, adherent, top dose 2 µM)
NVP-BEZ235
  AUC: 0.918
  IC50: > 2000 nM

## TUR (B-cell lymphoma, suspension, top dose 0.25 µM)
NVP-BEZ235
  AUC: 0.544
  IC50: 20.4 nM

## TYK-nu (ovary, adherent, top dose 0.25 µM)
NVP-BEZ235
  AUC: 0.459
  IC50: 12 nM

## U031 (kidney, adherent, top dose 2 µM)
NVP-BEZ235
  AUC: 0.442
  IC50: 86.3 nM

## U-87-MG (glioma, adherent, top dose 0.25 µM)
NVP-BEZ235
  AUC: 0.882
  IC50: > 250 nM

## U-118-MG (glioma, adherent, top dose 0.25 µM)
NVP-BEZ235
  AUC: 0.769
  IC50: 109 nM

## U-266 (myeloma, semi-adherent, top dose 0.25 µM)
NVP-BEZ235
  AUC: 0.821
  IC50: 217 nM

## U-698-M (B-cell leukaemia, suspension, top dose 0.25 µM)
NVP-BEZ235
  AUC: 0.527
  IC50: 18.5 nM

## UACC-62 (melanoma, adherent, top dose 0.25 µM)
NVP-BEZ235
  AUC: 0.842
  IC50: 173 nM

## UACC-257 (melanoma, adherent, top dose 0.25 µM)
NVP-BEZ235
  AUC: 0.853
  IC50: > 250 nM

## UACC-893 (breast, adherent, top dose 2 µM)
NVP-BEZ235
  AUC: 0.665
  IC50: 422 nM

## UWB1.289 (ovary, adherent, top dose 0.25 µM)
NVP-BEZ235
  AUC: 0.801
  IC50: 203 nM

## VA-ES-BJ (soft tissue, adherent, top dose 0.25 µM)
NVP-BEZ235
  AUC: 0.536
  IC50: 19.7 nM

## VAL (B-cell lymphoma, suspension, top dose 0.25 µM)
NVP-BEZ235
  AUC: 0.571
  IC50: 24.4 nM

## VCaP (prostate, adherent, top dose 0.25 µM)
NVP-BEZ235
  AUC: 0.914
  IC50: > 250 nM

## VM-CUB-1 (bladder, adherent, top dose 0.25 µM)
NVP-BEZ235
  AUC: 0.617
  IC50: 32.3 nM

## VMRC-LCD (lung adenocarcinoma, adherent, top dose 0.25 µM)
NVP-BEZ235
  AUC: 0.815
  IC50: 110 nM

## VMRC-RCZ (kidney, adherent, top dose 0.25 µM)
NVP-BEZ235
  AUC: 0.549
  IC50: 21.7 nM

## WIL2-NS (lymphoid neoplasm, suspension, top dose 0.25 µM)
NVP-BEZ235
  AUC: 0.834
  IC50: 122 nM

## WM35 (melanoma, adherent, top dose 0.25 µM)
NVP-BEZ235
  AUC: 0.531
  IC50: 19.1 nM

## WM793B (melanoma, adherent, top dose 0.25 µM)
NVP-BEZ235
  AUC: 0.58
  IC50: 26.6 nM

## WM1552C (melanoma, adherent, top dose 0.25 µM)
NVP-BEZ235
  AUC: 0.722
  IC50: 66.9 nM

## WM-115 (melanoma, adherent, top dose 0.25 µM)
NVP-BEZ235
  AUC: 0.692
  IC50: 61.6 nM

## WSU-DLCL2 (B-cell lymphoma, suspension, top dose 0.25 µM)
NVP-BEZ235
  AUC: 0.603
  IC50: 28.4 nM

## WSU-NHL (lymphoid neoplasm, suspension, top dose 0.25 µM)
NVP-BEZ235
  AUC: 0.534
  IC50: 19.1 nM

## YAPC (pancreas, adherent, top dose 0.25 µM)
NVP-BEZ235
  AUC: 0.879
  IC50: > 250 nM

## YH-13 (glioma, adherent, top dose 0.25 µM)
NVP-BEZ235
  AUC: 0.571
  IC50: 24.6 nM

## YKG-1 (glioma, adherent, top dose 0.25 µM)
NVP-BEZ235
  AUC: 0.683
  IC50: 51.3 nM

## YT (lymphoid neoplasm, suspension, top dose 0.25 µM)
NVP-BEZ235
  AUC: 0.547
  IC50: 20.6 nM

## ZR-75-30 (breast, adherent, top dose 0.25 µM)
NVP-BEZ235
  AUC: 0.904
  IC50: > 250 nM

## huH-1 (liver, adherent, top dose 0.25 µM)
NVP-BEZ235
  AUC: 0.727
  IC50: 81.6 nM

## no-11 (glioma, adherent, top dose 0.25 µM)
NVP-BEZ235
  AUC: 0.771
  IC50: 121 nM
